{"source": "paper PMC4351876", "about": "(Cancer prevention research (Philadelphia, Pa.), 2013)", "key": {"[1]": {"test": "Population pharmacokinetics of erlotinib in plasma", "type": "in vivo, human", "conditions": "ln2 × V/CL"}, "[2]": {"conditions": "previously reported; cited from earlier work"}}}
{"smiles": "C#Cc1cccc(Nc2ncnc3cc(OCCOC)c(OCCOC)cc23)c1", "note": "[erlotinib]", "values": [{"measurement": "average t1/2", "setting": "[1]", "result": 25.6, "unit": "h"}, {"measurement": "dose limiting toxicity (DLT)", "setting": "human, in vivo", "result": "None"}, {"measurement": "maximum allowable dose (MAD) of erlotinib", "setting": "human, in vivo, 6 months", "result": 75, "unit": "mg"}, {"measurement": "maximum tolerated dose (MTD) of erlotinib", "setting": "in combination with celecoxib 400mg BID, 3+3 escalation", "result": 50, "unit": "mg/day"}, {"measurement": "Tmax", "setting": "[2]", "result": "2 to 3", "unit": "h"}]}
